In PubChem BioAssay AID485364 (National Center for Advancing Translational Sciences (NCATS), 2010):
About 11,000 (3.1%) of roughly 360,000 compounds were called active. This list was built around the results that the source calls inconclusive (neither active nor inactive); the mix of calls is not that of the screen. Calls follow the shape of the dose curve; as a rule, active = well fitted inhibition curve with a large enough effect; inconclusive = small, poorly fitted or top-dose-only effect; inactive = no such curve, though single readings can be large or run the other way. No potency is given beside an inconclusive call; the fits are too rough.

biological target: Schistosoma mansoni thioredoxin glutathione reductase (TGR) (UniProt Q962Y6); test: qHTS Assay for the Inhibitors of Schistosoma Mansoni Peroxiredoxins; settings: purified TGR, DTNB reduction, TNB absorbance 405 nm; series mostly up to 114 µM; also: nearly all actives have a fitted effect of over 60% in size
How it was run: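 First, TGR (20 nM dispensed) and NADPH were mixed with compound. Second, a 15 min room-temperature incubation followed. Third, further NADPH and then DTNB were added to start the reaction. Finally, TNB absorbance was monitored kinetically.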
Potency is read from the fitted curve at half-maximal effect; tags tell the direction and shape of the fitted curve.

| Compound | Potency |
| --- | --- |
| c1ccc(N2CCN(c3nc(NCc4ccco4)c4ccccc4n3)CC2)cc1 | inactive |
| O=C(Nc1cc(Cl)cc(Cl)c1)c1coc(=O)c(Br)c1 | inconclusive [inhibitor, partial curve] |
| CC1CCN(c2nc3nonc3nc2Nc2ccc(F)cc2)CC1 | inactive |
| O=C(O)c1sccc1Oc1ccc(NS(=O)(=O)c2ccc(Cl)cc2)cc1 | inconclusive [inhibitor, full curve, poor fit] |
| O=C1c2ccccc2C(=O)c2cc(S(=O)(=O)Nc3ccccc3)ccc21 | inconclusive [inhibitor, full curve, poor fit] |
| O=C(CSc1nnc(-c2ccco2)o1)NC1CC2CCC1C2 (stereo not given) | inconclusive [inhibitor, single point] |
| COc1ccc(NS(=O)(=O)c2ccc(/C=C/C(=O)O)cc2)cc1S(=O)(=O)N1CCOCC1 | inconclusive [inhibitor, partial curve] |
| Cc1cc(N2CCN(C)CC2)nc2ccc(NC(=S)NC3CC3)cc12 | inconclusive [inhibitor, partial curve] |
| N#Cc1ccc(C(=O)CSc2n[nH]c(=O)n2Cc2ccco2)cc1 | inconclusive [inhibitor, single point] |
| COc1ccc(C(=O)Nc2cc(OC)c(NC(=O)c3ccco3)cc2OC)cc1 | inconclusive [inhibitor, single point] |
| Cc1ccc(C(C(=O)NCc2ccccc2)N(Cc2ccco2)C(=O)c2snc(C(N)=O)c2N)o1 (stereo not given) | inconclusive [inhibitor, full curve] |
| CC(=C1C(=O)c2ccccc2C1=O)N1CCC(C(N)=O)(N2CCCCC2)CC1 | active: 31.6 µM |
| Cc1ccc(N2C(=O)N(CC(=O)Nc3cccc(Cl)c3)C(=O)C2C)cc1 (stereo not given) | inactive |
| O=C(O)c1cc(-c2ccco2)nn1-c1cccc(Cl)c1 | active: 63.1 µM |
| Cc1n[nH]c(=O)c2c(NC(=O)COC(=O)Cc3c(F)cccc3Cl)oc(C)c12 | inconclusive [inhibitor, full curve] |
| Cc1cc2cc(CN(CCCN3CCOCC3)C(=O)NC3CCCCC3)c(=O)[nH]c2cc1C | inconclusive [inhibitor, partial curve] |
| Cc1c2c(n3c(nc4ccccc43)c1C#N)N(c1ccccc1)CC2 | inactive |
| Cc1[nH]n(-c2ncc(-c3ccc(Cl)cc3)s2)c(=O)c1C(c1ccc(Cl)cc1)C(C#N)C#N (stereo not given) | inconclusive [inhibitor, partial curve] |
| COc1cccc(-c2nc(CS(=O)(=O)CC(=O)N3CCCCC3)c(C)o2)c1 | inconclusive [inhibitor, partial curve] |
| O=C(c1ccc(Cl)cc1)C(CN1CCCCC1)c1ccccc1 (stereo not given) | active: 6.31 µM |

| Compound | Potency |
| --- | --- |
| Cc1cc(O)ccc1N/C=C1\CCCC1=O | inconclusive [inhibitor, partial curve] |
| Cc1ccc(-c2nc(=S)c3c(n2Cc2ccco2)CCCC3)cc1 | active: 8.91 µM |
| CCCCC(=O)N/N=C/c1c(O)n(CCc2ccc(OC)c(OC)c2)c(=O)[nH]c1=O | inconclusive [inhibitor, partial curve] |
| COc1ccc(-c2cn3nc(N4CCCC(C(=O)Nc5cccc(OC)c5)C4)sc3n2)cc1 (stereo not given) | inactive |
| C=CCn1cccc(C(=O)Nc2ccc(SC)cc2)c1=O | inactive |
| CCn1cc(CN2CCc3c([nH]c4ccccc34)C2c2cccc(OC)c2)c(C)n1 (stereo not given) | inactive |
| Nc1sc2c(c1C(=O)NC1CCS(=O)(=O)C1)CCCC2 (stereo not given) | active: 22.4 µM |
| CN(C)CCNC(=O)c1ccc2c(c1)NC(=O)C(CS(=O)(=O)Cc1cccc(Br)c1)N2 (stereo not given) | inconclusive [inhibitor, partial curve] |
| O=C(Cn1c(CO)nc2ccccc21)Nc1ccc2c(c1)OCCCO2 | inactive |
| COc1cc(OC)c(C2CC(=O)N3CN(c4ccc(C)cc4)CSC3=C2C#N)cc1OC (stereo not given) | active: 8.91 µM |
| CCOC(=O)N1CCN(c2cc(NCCC(=O)O)c3c4c(onc24)-c2ccccc2C3=O)CC1 | inconclusive [inhibitor, full curve, poor fit] |
| COc1ccccc1NC(=O)c1[nH]c(C)c(C(C)=O)c1C | inconclusive [inhibitor, partial curve, poor fit] |
| Cc1oc(-c2ccccc2)nc1CS(=O)CC(=O)NC1CCCCCC1 (stereo not given) | active: 7.08 µM |
| O=C1c2ccccc2C(Nc2ccc3c(c2)OCCO3)N1Cc1ccco1 (stereo not given) | inconclusive [inhibitor, partial curve] |
| COc1cc(CNc2ccc(N3CCCCC3)cc2)ccc1OCC(=O)NC(C)(C)C | inconclusive [inhibitor, partial curve, poor fit] |
| CN(C)c1ccc(/C=C/C(O)=C2/C(=O)N(C)C3(C)CC2c2ccccc2O3)cc1 (stereo not given) | inconclusive [inhibitor, partial curve] |
| CCCCCCNC(=O)N[C@@H](C(=O)NCCC[C@H]1CN2C(=NC[C@@H]2Cc2ccccc2)N1CCc1cccc(OC)c1)C(C)C | inconclusive [inhibitor, full curve, poor fit] |
| NC(=O)c1c(NC(=O)C2CC=CCC2C(=O)O)sc2c1CCCCC2 (stereo not given) | active: 50.1 µM |
| O=C(COc1ccc(S(=O)(=O)N2CCCC2)cc1Cl)NCc1ccco1 | inconclusive [inhibitor, partial curve] |
| CC1(C)CC(=O)c2c(nc3ccccc3c2N)C1 | inactive |
